# Measured values taken from the supplement of paper PMC8728848.
# The list shows a part of the results.
# How the values were obtained:
# Test in all cases: glycan array binding signal (z-score within array); higher = stronger binding
# Settings in all cases: glycan notation: IUPAC condensed, linker removed
# [1] = molecular target: Gal(a1-3)Gal(b1-3)GlcNAc
# In short: (§1)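 From the Consortium for Functional Glycomics database, 3228 arrays were curated, keeping only those whose protein sequence was available. Binding is given as a within-array Z-score averaged across arrays sharing a protein sequence and across linkers. Negative Z-scores can be read as non-binding.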
# [2] = molecular target: Gal(a1-3)Gal(b1-3)GlcNAc(b1-2)Man
# In short: as §1
# [3] = molecular target: Gal(a1-3)Gal(b1-3)GlcNAc(b1-2)Man(a1-3)[Gal(a1-3)Gal(b1-3)GlcNAc(b1-2)Man(a1-6)]Man(b1-4)GlcNAc(b1-4)GlcNAc
# In short: as §1
# [4] = molecular target: Gal(a1-3)Gal(b1-3)GlcNAc(b1-3)GalNAc
# In short: as §1
# [5] = molecular target: Gal(a1-3)Gal(b1-3)GlcNAc(b1-6)GalNAc
# In short: as §1
# [6] = molecular target: Gal(a1-3)Gal(b1-3)[Fuc(a1-4)]GlcNAc(b1-2)Man(a1-3)[Gal(a1-3)Gal(b1-3)[Fuc(a1-4)]GlcNAc(b1-2)Man(a1-6)]Man(b1-4)GlcNAc(b1-4)GlcNAc
# In short: as §1
# [7] = molecular target: Gal(a1-3)Gal(b1-4)Glc
# In short: as §1
# [8] = molecular target: Gal(a1-3)Gal(b1-4)GlcNAc
# In short: as §1
# [9] = molecular target: Gal(a1-3)Gal(b1-4)GlcNAc(b1-2)Man
# In short: as §1
# [10] = molecular target: Gal(a1-3)Gal(b1-4)GlcNAc(b1-2)Man(a1-3)[Gal(a1-3)Gal(b1-4)GlcNAc(b1-2)Man(a1-6)]Man(b1-4)GlcNAc(b1-4)GlcNAc
# In short: as §1
# [11] = molecular target: Gal(a1-3)Gal(b1-4)GlcNAc(b1-3)GalNAc
# In short: as §1
# [12] = molecular target: Gal(a1-3)Gal(b1-4)GlcNAc(b1-6)GalNAc
# In short: as §1
# [13] = molecular target: Gal(a1-3)Gal(b1-4)[Fuc(a1-3)]GlcNAc
# In short: as §1
# [14] = molecular target: Gal(a1-3)Gal(b1-4)[Fuc(a1-3)]GlcNAc(b1-2)Man(a1-3)[Gal(a1-3)Gal(b1-4)[Fuc(a1-3)]GlcNAc(b1-2)Man(a1-6)]Man(b1-4)GlcNAc(b1-4)GlcNAc
# In short: as §1
# [15] = molecular target: Gal(a1-3)GalNAc
# In short: as §1
# [16] = molecular target: Gal(a1-3)[Gal(a1-4)]Gal(b1-4)GlcNAc
# In short: as §1
# [17] = molecular target: Gal(a1-4)Gal(b1-3)GlcNAc(b1-2)Man(a1-3)[Gal(a1-4)Gal(b1-3)GlcNAc(b1-2)Man(a1-6)]Man(b1-4)GlcNAc(b1-4)GlcNAc
# In short: as §1
# [18] = molecular target: Gal(a1-4)Gal(b1-4)Glc
# In short: as §1
# [19] = molecular target: Gal(a1-4)Gal(b1-4)GlcNAc
# In short: as §1
# [20] = molecular target: Gal(a1-4)Gal(b1-4)GlcNAc(b1-2)Man(a1-3)[Gal(a1-4)Gal(b1-4)GlcNAc(b1-2)Man(a1-6)]Man(b1-4)GlcNAc(b1-4)GlcNAc
# In short: as §1
# [21] = molecular target: Gal(a1-4)Gal(b1-4)GlcNAc(b1-3)Gal(b1-4)Glc
# In short: as §1
# [22] = molecular target: Gal(a1-4)GlcNAc
# In short: as §1
# [23] = molecular target: Gal(a1-6)Glc
# In short: as §1
# [24] = molecular target: Gal(b1-2)Gal
# In short: as §1
# [25] = molecular target: Gal(b1-3)Gal
# In short: as §1
# [26] = molecular target: Gal(b1-3)Gal(b1-4)GlcNAc
# In short: as §1
# [27] = molecular target: Gal(b1-3)GalNAc
# In short: as §1
# [28] = molecular target: Gal(b1-3)GalNAc(a1-3)[Fuc(a1-2)]Gal(b1-4)Glc
# In short: as §1
# [29] = molecular target: Gal(b1-3)GalNAc(a1-3)[Fuc(a1-2)]Gal(b1-4)GlcNAc
# In short: as §1
# [30] = molecular target: Gal(b1-3)GalNAc(b1-3)Gal
# In short: as §1
# [31] = molecular target: Gal(b1-3)GalNAc(b1-3)Gal(a1-4)Gal(b1-4)Glc
# In short: as §1
# [32] = molecular target: Gal(b1-3)GalNAc(b1-4)Gal(b1-4)Glc
# In short: as §1
# [33] = molecular target: Gal(b1-3)GalNAc(b1-4)[Neu5Ac(a2-3)]Gal(b1-4)Glc
# In short: as §1
# [34] = molecular target: Gal(b1-3)GlcNAc
# In short: as §1
# [35] = molecular target: Gal(b1-3)GlcNAc(a1-3)Gal(b1-4)GlcNAc
# In short: as §1
# [36] = molecular target: Gal(b1-3)GlcNAc(a1-6)Gal(b1-4)GlcNAc
# In short: as §1
# [37] = molecular target: Gal(b1-3)GlcNAc(b1-2)Man
# In short: as §1
# [38] = molecular target: Gal(b1-3)GlcNAc(b1-2)Man(a1-3)[Gal(b1-3)GlcNAc(b1-2)Man(a1-6)]Man(b1-4)GlcNAc(b1-4)GlcNAc
# In short: as §1
binder,measurement,setting,value
FimA-N1 (Actinomyces oris) (protein) MHHHHHHSSGVDLGTENLYFQSNATETPNYGNIKTDATGSLVIHKHLTGGGKDIGTPTGTAQNADDKGPAVEGVVFTAYPITDINLKDPAGWDTISNLSRTGVPDSACANPAAPTLGAHQFGTPKVSPATTKEGLATITEMPVQAYLVCETTTPGDIVQKAKPFVVTIPHPNTAAGADGQWIYDVNVYPKNEAIDVDKTIQAQK,glycan array binding signal (z-score),[1],1.89
same,glycan array binding signal (z-score),[2],-0.417
same,glycan array binding signal (z-score),[3],-0.21
same,glycan array binding signal (z-score),[4],-0.231
same,glycan array binding signal (z-score),[5],-0.199
same,glycan array binding signal (z-score),[6],-0.118
same,glycan array binding signal (z-score),[7],-0.217
same,glycan array binding signal (z-score),[8],0.372
same,glycan array binding signal (z-score),[9],-0.38
same,glycan array binding signal (z-score),[10],1.63
same,glycan array binding signal (z-score),[11],-0.363
same,glycan array binding signal (z-score),[12],-0.093
same,glycan array binding signal (z-score),[13],-0.28
same,glycan array binding signal (z-score),[14],-0.107
same,glycan array binding signal (z-score),[15],-0.307
same,glycan array binding signal (z-score),[16],0.219
same,glycan array binding signal (z-score),[17],0.288
same,glycan array binding signal (z-score),[18],-0.077
same,glycan array binding signal (z-score),[19],0.483
same,glycan array binding signal (z-score),[20],0.207
same,glycan array binding signal (z-score),[21],-0.445
same,glycan array binding signal (z-score),[22],-0.245
same,glycan array binding signal (z-score),[23],-0.164
same,glycan array binding signal (z-score),[24],1.45
same,glycan array binding signal (z-score),[25],-0.179
same,glycan array binding signal (z-score),[26],-0.145
same,glycan array binding signal (z-score),[27],-0.2
same,glycan array binding signal (z-score),[28],-0.218
same,glycan array binding signal (z-score),[29],-0.448
same,glycan array binding signal (z-score),[30],-0.35
same,glycan array binding signal (z-score),[31],0.526
same,glycan array binding signal (z-score),[32],-0.167
same,glycan array binding signal (z-score),[33],-0.373
same,glycan array binding signal (z-score),[34],-0.36
same,glycan array binding signal (z-score),[35],-0.331
same,glycan array binding signal (z-score),[36],-0.128
same,glycan array binding signal (z-score),[37],-0.223
same,glycan array binding signal (z-score),[38],-0.246
